Test results as given in the supplement of paper PMC8728848.
The other results are listed elsewhere or left out.

What was measured:
Assay in all cases: glycan array binding signal (z-score within array); higher = stronger binding
Conditions in all cases: glycan notation: IUPAC condensed, linker removed
[1] = target: GalNAc(a1-3)GalNAc(b1-3)Gal(a1-4)Gal(b1-4)GlcNAc
Procedure, shortened: (§1)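 Glycan array binding is given as a within-array Z-score, which can be read as non-binding when negative. The arrays, 3228 of them, came from the Consortium for Functional Glycomics database and were retained only where the protein sequence was available. Z-scores were averaged across arrays of the same protein sequence at different concentrations or buffers and across linkers.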

GalNAc(b1-3)Gal = target: GalNAc(b1-3)Gal
Procedure, shortened: as §1

[2] = target: GalNAc(b1-3)Gal(a1-4)Gal(b1-4)GlcNAc
Procedure, shortened: as §1

[3] = target: GalNAc(b1-3)Gal(a1-4)Gal(b1-4)GlcNAc(b1-3)Gal(b1-4)Glc
Procedure, shortened: as §1

[4] = target: GalNAc(b1-3)Gal(a1-6)Gal(b1-4)Glc
Procedure, shortened: as §1

GalNAc(b1-3)GalNAc = target: GalNAc(b1-3)GalNAc
Procedure, shortened: as §1

GalNAc(b1-3)GlcNAc = target: GalNAc(b1-3)GlcNAc
Procedure, shortened: as §1

GalNAc(b1-4)Gal(b1-4)Glc = target: GalNAc(b1-4)Gal(b1-4)Glc
Procedure, shortened: as §1

GalNAc(b1-4)GlcNAc = target: GalNAc(b1-4)GlcNAc
Procedure, shortened: as §1

[5] = target: GalNAc(b1-4)GlcNAc(b1-2)Man
Procedure, shortened: as §1

[6] = target: GalNAc(b1-4)GlcNAc(b1-2)Man(a1-3)[GalNAc(b1-4)GlcNAc(b1-2)Man(a1-6)]Man(b1-4)GlcNAc(b1-4)GlcNAc
Procedure, shortened: as §1

[7] = target: GalNAc(b1-4)GlcNAc(b1-3)GalNAc(b1-4)GlcNAc
Procedure, shortened: as §1

GalNAc(b1-4)GlcNAc6S = target: GalNAc(b1-4)GlcNAc6S
Procedure, shortened: as §1

GalNAc(b1-6)GalNAc = target: GalNAc(b1-6)GalNAc
Procedure, shortened: as §1

GalNAc3S(b1-4)GlcNAc = target: GalNAc3S(b1-4)GlcNAc
Procedure, shortened: as §1

GalNAc3S(b1-4)GlcNAc3S = target: GalNAc3S(b1-4)GlcNAc3S
Procedure, shortened: as §1

[8] = target: GalNAc3S(b1-4)[Fuc(a1-3)]GlcNAc
Procedure, shortened: as §1

GalNAc4S6S(b1-4)GlcNAc = target: GalNAc4S6S(b1-4)GlcNAc
Procedure, shortened: as §1

GalNAc6S(b1-4)GlcNAc = target: GalNAc6S(b1-4)GlcNAc
Procedure, shortened: as §1

Glc(a1-4)Glc = target: Glc(a1-4)Glc
Procedure, shortened: as §1

[9] = target: Glc(a1-4)Glc(a1-4)Glc(a1-4)Glc
Procedure, shortened: as §1

Glc(a1-6)Glc(a1-6)Glc = target: Glc(a1-6)Glc(a1-6)Glc
Procedure, shortened: as §1

[10] = target: Glc(a1-6)Glc(a1-6)Glc(a1-6)Glc
Procedure, shortened: as §1

Glc(b1-4)Glc = target: Glc(b1-4)Glc
Procedure, shortened: as §1

Glc(b1-6)Glc = target: Glc(b1-6)Glc
Procedure, shortened: as §1

GlcA(b1-3)Gal = target: GlcA(b1-3)Gal
Procedure, shortened: as §1

GlcA(b1-3)GlcNAc = target: GlcA(b1-3)GlcNAc
Procedure, shortened: as §1

GlcA(b1-6)Gal = target: GlcA(b1-6)Gal
Procedure, shortened: as §1

[11] = target: GlcA3S(b1-3)Gal(b1-4)GlcNAc(b1-2)Man
Procedure, shortened: as §1

[12] = target: GlcA3S(b1-3)Gal(b1-4)GlcNAc(b1-3)Gal(b1-4)Glc
Procedure, shortened: as §1

[13] = target: GlcNAc(a1-3)Gal(b1-4)GlcNAc
Procedure, shortened: as §1

[14] = target: GlcNAc(a1-4)Gal(b1-3)GlcNAc
Procedure, shortened: as §1

[15] = target: GlcNAc(a1-4)Gal(b1-4)GalNAc
Procedure, shortened: as §1

[16] = target: GlcNAc(a1-4)Gal(b1-4)GlcNAc
Procedure, shortened: as §1

[17] = target: GlcNAc(a1-4)Gal(b1-4)GlcNAc(b1-3)Gal(b1-4)Glc
Procedure, shortened: as §1

[18] = target: GlcNAc(a1-4)Gal(b1-4)GlcNAc(b1-3)Gal(b1-4)GlcNAc
Procedure, shortened: as §1

[19] = target: GlcNAc(a1-4)Gal(b1-4)GlcNAc(b1-3)Gal(b1-4)GlcNAc(b1-3)Gal(b1-4)GlcNAc
Procedure, shortened: as §1

[20] = target: GlcNAc(a1-4)Gal(b1-4)GlcNAc(b1-3)Gal(b1-4)[Fuc(a1-3)]GlcNAc(b1-3)Gal(b1-4)[Fuc(a1-3)]GlcNAc
Procedure, shortened: as §1

B1: MGL2 (Mus musculus), Q8JZN1 (protein)
chain: MTMRYENFQNLEREEKNQEMRNGDKKGGMESPKFALIPSQSFLWRILSWTHLLLFSLGLSLLLLVVISVIGSQNSQLRRDLGTLRAILDNTTSKIKAEFQSLDSRADNFEKGISSLKVDVEDHRQELQAGRDLSQKVTSLESTLEKREQALKTDLSDLTDHVQQLETDLKALTCQLANLKNNGSEVACCPLHWTEHEGSCYWFSESEKSWPEADKYCRLENSHLVVVNSLEEQNFLQNRLANVLSWMGLTDQNGPWRWVDGTDFDKGFKNWRPLQPDNWHGHMLGGGEDCAHFSYDGRWNDDVCQRHYHWICETELGKASSAHSPQLIASVP
[1]
  glycan array binding signal (z-score): -0.291
GalNAc(b1-3)Gal
  glycan array binding signal (z-score): 4.95
[2]
  glycan array binding signal (z-score): 0.739
[3]
  glycan array binding signal (z-score): 0.003
[4]
  glycan array binding signal (z-score): 0.191
GalNAc(b1-3)GalNAc
  glycan array binding signal (z-score): -0.19
GalNAc(b1-3)GlcNAc
  glycan array binding signal (z-score): 8.82
GalNAc(b1-4)Gal(b1-4)Glc
  glycan array binding signal (z-score): -0.127
GalNAc(b1-4)GlcNAc
  glycan array binding signal (z-score): 5.73
[5]
  glycan array binding signal (z-score): 0.962
[6]
  glycan array binding signal (z-score): -0.063
[7]
  glycan array binding signal (z-score): 2.48
GalNAc(b1-4)GlcNAc6S
  glycan array binding signal (z-score): 3.46
GalNAc(b1-6)GalNAc
  glycan array binding signal (z-score): -0.3
GalNAc3S(b1-4)GlcNAc
  glycan array binding signal (z-score): -0.304
GalNAc3S(b1-4)GlcNAc3S
  glycan array binding signal (z-score): -0.186
[8]
  glycan array binding signal (z-score): -0.19
GalNAc4S6S(b1-4)GlcNAc
  glycan array binding signal (z-score): -0.236
GalNAc6S(b1-4)GlcNAc
  glycan array binding signal (z-score): 1.15
Glc(a1-4)Glc
  glycan array binding signal (z-score): -0.213
[9]
  glycan array binding signal (z-score): -0.088
Glc(a1-6)Glc(a1-6)Glc
  glycan array binding signal (z-score): -0.176
[10]
  glycan array binding signal (z-score): 0.014
Glc(b1-4)Glc
  glycan array binding signal (z-score): -0.143
Glc(b1-6)Glc
  glycan array binding signal (z-score): -0.253
GlcA(b1-3)Gal
  glycan array binding signal (z-score): -0.219
GlcA(b1-3)GlcNAc
  glycan array binding signal (z-score): 0.307
GlcA(b1-6)Gal
  glycan array binding signal (z-score): -0.193
[11]
  glycan array binding signal (z-score): -0.216
[12]
  glycan array binding signal (z-score): -0.239
[13]
  glycan array binding signal (z-score): -0.297
[14]
  glycan array binding signal (z-score): -0.232
[15]
  glycan array binding signal (z-score): -0.217
[16]
  glycan array binding signal (z-score): -0.29
[17]
  glycan array binding signal (z-score): -0.291
[18]
  glycan array binding signal (z-score): -0.191
[19]
  glycan array binding signal (z-score): -0.133
[20]
  glycan array binding signal (z-score): -0.135
